Source: PubChem BioAssay AID2546 (National Center for Advancing Translational Sciences (NCATS), 2010)
Among all 310,000 compounds or so, about 11,000 (3.5%) were called active. Inconclusive means that the source gave no clear call. Such entries were picked first, then a sample of the others. Calls come from the whole dose curve; as a rule, active = well fitted inhibition curve with a large enough effect; inconclusive = small, poorly fitted or top-dose-only effect, or effect the other way; inactive = flat fitted curve, though single readings scatter. No potency is given beside an inconclusive call; the fits are too rough.
Potency is the fitted concentration of half-maximal effect; tags give direction and shape of the fitted curve.

Assay: VP16 counterscreen qHTS for inhibitors of ROR gamma transcriptional activity;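 note: Gal4-VP16 expression switched on by copper sulfate through the metallothionein promoter; nearly all actives have a fitted effect of over 50% in size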
Details: Drosophila S2 Gal4-VP16 UAS-luciferase, luminescence, 20 h; series mostly up to 53.6 µM
For `C=C(C(=O)c1ccccc1)C(c1ccccc1)C(C)C(=O)c1ccccc1` (stereo not given), the Potency was active: 15.8 µM. In the case of `O=C(N/N=C/c1cn(-c2cccs2)nc1-c1ccccc1)c1ccccc1O`, the Potency is reported as inconclusive [inhibitor, partial curve, poor fit]. For `CC(C)(C)c1ccc(OCc2ccc(C(=O)NN)o2)cc1`, the Potency was inconclusive [inhibitor, partial curve]. With `COc1ccc(CCNc2ccc(N3C(=O)CC(C)C3=O)cc2[N+](=O)[O-])cc1OC` (stereo not given) the Potency was active: 6.31 µM. For `O=C1NC(=S)S/C1=C/c1ccc(OC(=O)c2ccco2)cc1`, the Potency was inconclusive [inhibitor, full curve, poor fit]. For `Cc1cccc(NC(=S)N/N=C2\CC(C)(C)Oc3ccc(O)cc32)c1`, the Potency was active: 3.16 µM. For `Nc1c(-c2ccccc2)c(CN2CCOCC2)nn1-c1ccc(F)cc1`, the Potency was “inactive”. In the case of `COc1cc2ccccc2cc1C(=O)Nc1ccc(N2CCN(C(=O)C(C)C)CC2)cc1`, the Potency is reported as inconclusive [inhibitor, single point]. For `CSc1ccc(S(=O)(=O)N(C)Cc2ccccc2)cc1`, the Potency was “inactive”. For `COc1cccc(C(=O)CSc2nnc(-c3cccs3)o2)c1`, the Potency was inconclusive [inhibitor, single point]. With `CC(C)(C)OC(=O)CNC(=O)c1[nH]cnc1C(=O)Nc1ccc(CNC(=O)OC(C)(C)C)cc1` the Potency was inconclusive [inhibitor, single point]. With `Cc1nc(N2CCN(C)CC2)c2cc(-c3ccccc3)sc2n1` the Potency was “inactive”. For `Cc1ccc(NCc2nc3ccccc3n2C)cc1`, the Potency was inconclusive [inhibitor, single point]. For `Cc1ccc(CNC(=S)NC2CCC(C(C)(C)C)CC2)cc1` (stereo not given), the Potency was active: 5.01 µM. For `C/C1=C2/[N-]C(C(CC(N)=O)[C@@]2(C)CCC(=O)NCC(C)OP(=O)([O-])O[C@H]2[C@@H](O)[C@@H](n3cnc4cc(C)c(C)cc43)O[C@@H]2CO)[C@]2(C)N=C(/C(C)=C3N=C(/C=C4N=C1C(CCC(N)=O)C\4(C)C)[C@@H](CCC(N)=O)[C@]\3(C)CC(N)=O)[C@@H](CCC(N)=O)[C@]2(C)CC(N)=O.CC(=O)O.[Co]` (stereo not given in full), the Potency was inconclusive [inhibitor, single point]. With `COc1ccc(NC(=O)COC(=O)c2c(F)cccc2Cl)cc1OC` the Potency was inconclusive [activator, full curve, poor fit]. For `CC(C)(C)NC(=S)Nc1cccc(C(F)(F)F)c1`, the Potency was inconclusive [inhibitor, single point]. In the case of `O=C(/C=C/c1ccccc1)NC(=S)NNC(=O)c1cccnc1`, the Potency is reported as inconclusive [inhibitor, single point]. In the case of `Cc1nc(N2CCN(C(=O)c3ccco3)CC2)c2c3c(sc2n1)CC(C)CC3` (stereo not given), the Potency is reported as inconclusive [inhibitor, single point]. In the case of `CCOc1ccc(C(=O)Nc2ccc(NC(=O)c3cccs3)cc2)cc1[N+](=O)[O-]`, the Potency is reported as inconclusive [inhibitor, partial curve]. With `O=C(Oc1ccc(-c2nnco2)cc1)N1CCOCC1` the Potency was inconclusive [activator, single point]. With `CCC(=O)Nc1ccc(SC#N)cc1C` the Potency was inconclusive [inhibitor, single point]. In the case of `N#CC1=C(N)Oc2n[nH]c(-c3cccnc3)c2C1c1ccc([N+](=O)[O-])o1` (stereo not given), the Potency is reported as inconclusive [inhibitor, single point]. For `O=c1c2ccccc2[nH]c(=S)n1CCCN1CCC(Cc2ccccc2)CC1`, the Potency was inconclusive [inhibitor, single point]. For `O=C1c2ccccc2NC(c2cnc3ccccc3n2)N1O` (stereo not given), the Potency was inconclusive [inhibitor, single point]. With `CC(c1nc2ccccc2n1Cc1ccccc1)N1CCCCC1` (stereo not given) the Potency was inconclusive [inhibitor, single point]. In the case of `CN(C)C(=O)c1ccc(-c2cc(N(C)Cc3ccco3)ncn2)cc1`, the Potency is reported as inconclusive [activator, single point]. With `COc1ccc(C2/C=C\CN(C(=O)C3CC3)C(Cc3ccccc3)C(=O)N2Cc2ccc(F)cc2)cc1` (stereo not given) the Potency was inconclusive [inhibitor, single point]. For `CC12CC3CC(C)(C1)CC(C(=O)NC(=S)N1CCCCC1)(C3)C2`, the Potency was inconclusive [inhibitor, single point]. In the case of `O=C(CSc1nc2ncccc2[nH]1)NCCc1ccccc1`, the Potency is reported as “inactive”. For `CCN(CC)S(=O)(=O)c1cccc(C(=O)OC2CCOC2=O)c1` (stereo not given), the Potency was inconclusive [activator, full curve, poor fit]. With `COc1ccccc1N1CCN(C(=O)c2cccc3c(=O)c(C)c(-c4ccccc4)oc23)CC1` the Potency was “inactive”. In the case of `O=C(CSc1ccc([N+](=O)[O-])cn1)Nc1cc(C(F)(F)F)ccc1N1CCOCC1`, the Potency is reported as inconclusive [inhibitor, single point]. In the case of `CCOC(=O)N(C)c1ccc(C(O)(C(F)(F)F)C(F)(F)F)cc1`, the Potency is reported as “inactive”. In the case of `CCOC(=O)c1ccc(NC(=O)CC2Sc3ncnn3C2=O)cc1` (stereo not given), the Potency is reported as active: 22.4 µM. With `CCOc1cc(/C=C(\C#N)C(=O)NCC2CCCO2)ccc1O` (stereo not given) the Potency was inconclusive [activator, single point]. With `CC1CCCCN1C(=O)c1cc2nc(-c3ccccc3)cc(-c3ccccc3)n2n1` (stereo not given) the Potency was inconclusive [inhibitor, partial curve]. In the case of `CC(C)(C)NC(=O)COC(=O)c1ccc(O)cc1`, the Potency is reported as inconclusive [inhibitor, single point]. In the case of `Cc1ccc(C(=O)C2=C(O)C(=O)N(Cc3ccco3)C2c2ccc(N(C)C)cc2)o1` (stereo not given), the Potency is reported as inconclusive [inhibitor, partial curve]. In the case of `Cc1ccc(NC(=S)N2CCN(S(=O)(=O)c3c(F)cccc3F)CC2)cc1C`, the Potency is reported as inconclusive [inhibitor, partial curve]. In the case of `CCC(C)(C)C1CCC(=NNC(=S)Nc2ccccc2)CC1` (stereo not given), the Potency is reported as inconclusive [inhibitor, single point]. With `O=C1COc2ccc(S(=O)(=O)CCC(=O)N3CCN(c4cccc(C(F)(F)F)c4)CC3)cc2N1` the Potency was inconclusive [inhibitor, single point]. For `COc1cc2cc[n+]3cc4c(OC)c(OC)ccc4cc3c2cc1OC`, the Potency was “inactive”. In the case of `CN(C)/C=C1\C=C(c2ccccc2)OC1=O`, the Potency is reported as active: 35.5 µM. For `O=C(CCc1ccccc1)NNC(=S)NC(=O)c1ccccc1`, the Potency was inconclusive [inhibitor, single point]. With `CC(OC(=O)CCCCCN=C1NS(=O)(=O)c2ccccc21)C(=O)Nc1cc(Cl)cc(Cl)c1` (stereo not given) the Potency was inconclusive [inhibitor, single point]. With `Cc1ccc2oc3nc(C)c(C(=O)O)cc3c(=O)c2c1` the Potency was inconclusive [inhibitor, full curve]. For `O=C1OC(/C=C/c2ccc(Cl)cc2Cl)=NC/1=C\c1cccs1`, the Potency was inconclusive [activator, single point]. With `CCOC(=O)N1CCC(NC(=O)C2CCN(c3nc(-c4ccc(OC)cc4)no3)CC2)CC1` the Potency was “inactive”. With `Cc1nc2cncnc2n(-c2ccccc2)c1=O` the Potency was “inactive”. For `O=C(/C=C/c1ccc(F)cc1)c1ccccc1Br`, the Potency was inconclusive [inhibitor, single point]. In the case of `CN(C)CCCNc1cc(C(C)(C)C)nc2c(-c3ccc(Cl)cc3)cnn12`, the Potency is reported as active: 14.1 µM. In the case of `CC(C)(C=O)C1=CC(=O)c2ccccc2C1=O`, the Potency is reported as active: 5.01 µM. For `Cc1nc(SCC(=O)NCC2CCCO2)c2c3c(sc2n1)CCCC3` (stereo not given), the Potency was active: 12.6 µM. For `O=c1[nH]c2ccsc2c(=O)n1CCO`, the Potency was “inactive”. With `CSC1=N/C(=C\c2ccccc2F)C(=O)S1` the Potency was “inactive”. With `O=C(CCCN1C(=O)/C(=C/c2cccs2)SC1=S)Nc1ccc(O)cc1` the Potency was inconclusive [inhibitor, full curve]. In the case of `Cc1ccc(CSc2nc3ccccc3c(=O)n2C)cc1`, the Potency is reported as inconclusive [inhibitor, single point]. In the case of `Cc1[nH]nc(SCC(=O)NC2CCCC2)c1[N+](=O)[O-]`, the Potency is reported as “inactive”. In the case of `O=C(CN1CCN(S(=O)(=O)N2CCCCC2)CC1)Nc1ccc(Cl)c(Cl)c1`, the Potency is reported as inconclusive [inhibitor, single point]. In the case of `Cc1cc(N/N=C/c2ccc(F)cc2)nc(-n2nc(C)cc2C)n1`, the Potency is reported as active: 0.316 µM. For `COc1ccccc1NC(=S)N1CCN(c2nc(-c3ccccc3)cs2)CC1`, the Potency was inconclusive [inhibitor, single point]. With `COc1ccc(CN=Cc2c(O)[nH]c3ccccc23)cc1` the Potency was inconclusive [activator, single point]. With `CN=C(NC1CCCCC1)c1ccc(Cl)cc1` the Potency was “inactive”. For `CC(C)COn1c(=S)[nH]c2ccccc2c1=O`, the Potency was active: 10 µM. For `COc1cc2[nH]c(=S)nc(NCCC(C)C)c2cc1OC`, the Potency was active: 8.91 µM. In the case of `CC(=O)c1ccc(OCc2cc(C(=O)N3CC4C[C@@H]5CC3C[C@H](C4)C5)no2)cc1`, the Potency is reported as inconclusive [inhibitor, single point]. For `CC(C)Cn1c(/C=N/Nc2nc3ccccc3[nH]2)nc2ccccc21`, the Potency was active: 1.12 µM. For `CC(=O)N1CCN(c2ccc(NCc3ccc(C(C)C)cc3)cc2)CC1`, the Potency was active: 1.12 µM. In the case of `CS(=O)(=O)N1N=C(c2ccco2)CC1c1ccco1` (stereo not given), the Potency is reported as inconclusive [activator, partial curve].
